The list shows a part of the results. Many values rest on one well or one pass, so single values are uncertain.
Columns and labels:
Experiment in all cases: cell count relative to DMSO control; melanoma cells; higher = more viable cells
Details in all cases: library dose: low library concentration; 72 h
[1] = test system: COLO792
[2] = test system: COLO800
[3] = test system: COLO829
[4] = test system: G361
[5] = test system: IPC-298
[6] = test system: IST-MEL1
[7] = test system: LB2518-MEL
[8] = test system: LOXIMVI
[9] = test system: MEL-HO
[10] = test system: MZ2-MEL
[11] = test system: MeWo
[12] = test system: RPMI7951
[13] = test system: RVH-421
[14] = test system: SkMel28
[15] = test system: SkMel30
[16] = test system: SkMel5
[17] = test system: UACC257
[18] = test system: UACC62
[19] = test system: WM115
[20] = test system: WM1716
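Also: cell number obtained by counting DAPI-stained nuclei in high-throughput microscope images with image analysis software, screen run in 1,536-well plates.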

SMILES | cell count [1] [%] | cell count [2] [%] | cell count [3] [%] | cell count [4] [%] | cell count [5] [%] | cell count [6] [%] | cell count [7] [%] | cell count [8] [%] | cell count [9] [%] | cell count [10] [%] | cell count [11] [%] | cell count [12] [%] | cell count [13] [%] | cell count [14] [%] | cell count [15] [%] | cell count [16] [%] | cell count [17] [%] | cell count [18] [%] | cell count [19] [%] | cell count [20] [%]
COc1ccc(-c2ccc3c(N4CCOCC4)nc(N4C[C@@H](C)O[C@@H](C)C4)nc3n2)cc1CO + COc1cc(N2CCC(N3CCN(C)CC3)CC2)ccc1Nc1ncc(Cl)c(Nc2ccccc2S(=O)(=O)C(C)C)n1 [NVP-TAE684] (first compound 0.02 µM, partner dose 0.08 µM) | 88.7 | 106 | 94.6 | 89.6 | 103 | 96 | 94.8 | 112 | 69.6 | 90.3 | 81.3 | 85.7 | 96 | 77.5 | 104 | 81.4 | 65.2 | 96.8 | 97.8 | 95.9
Cc1cc([N+](=O)[O-])ccc1NS(=O)(=O)c1cc(Cl)ccc1Cl + CCCCCCCCCCCC1=C(O)C(=O)C=C(O)C1=O [Embelin] (first compound 1 µM, partner dose 1.2 µM) | 97.8 | 98.5 | 57.9 | 101 | 95.8 | 86.4 | 99.1 | 102 | 84.7 | 89.4 | 91.5 | 117 | 103 | 101 | 109 | 85.8 | 66.7 | 88.9 | 92.2 | 101
Oc1nc(-c2ccc(C(F)(F)F)cc2)nc2c1CSCC2 + O=c1cc(-c2cccc3c2Sc2ccccc2S3)oc(N2CCOCC2)c1 [KU55933] (first compound 2 µM, partner dose 1 µM) | 84 | 109 | 119 | 89 | 95.2 | 101 | 122 | 131 | 99.3 | 98.7 | 93.9 | 89.5 | 130 | 74.8 | 99.1 | 76.1 | 72.1 | 94 | 93.9 | 70.4
CCN(CC)CCCCNc1ncc2cc(-c3cc(OC)cc(OC)c3)c(NC(=O)NC(C)(C)C)nc2n1 + O=C1NC(=O)/C(=C/c2ccc(-c3ccc(F)cc3O)o2)S1 [AS252424] (first compound 0.1 µM, partner dose 1 µM) | 108 | 98.1 | 96.2 | 87.4 | 99.8 | 96.3 | 95.2 | 117 | 90.1 | 102 | 94.3 | 103 | 105 | 93.7 | 79.7 | 89.4 | 82.6 | 90.9 | 96 | 113
Oc1nc(-c2ccc(C(F)(F)F)cc2)nc2c1CSCC2 + CC(C)CCN1c2nc(Nc3cc(F)c(O)c(F)c3)ncc2N(C)C(=O)C1C [BID1870] (first compound 2 µM, partner dose 0.2 µM) | 81.6 | 137 | 107 | 85.8 | 91.8 | 99.8 | 96.5 | 93.8 | 83.9 | 95.7 | 97.2 | 111 | 75.5 | 81.6 | 97.9 | 79.7 | 69.8 | 99.9 | 89.1 | 64.2
N#Cc1c(O)c2c(-c3ccc(-c4ccccc4O)cc3)csc2[nH]c1=O + CC(C)CCN1c2nc(Nc3cc(F)c(O)c(F)c3)ncc2N(C)C(=O)C1C [BID1870] (first compound 2 µM, partner dose 0.2 µM) | 91.1 | 107 | 100 | 107 | 96.4 | 99.2 | 86.7 | 113 | 91.1 | 92.8 | 102 | 109 | 112 | 79.8 | 105 | 102 | 92.6 | 92.4 | 97.6 | 97.9
N#Cc1c(O)c2c(-c3ccc(-c4ccccc4O)cc3)csc2[nH]c1=O + O=c1cc(-c2cccc3c2Sc2ccccc2S3)oc(N2CCOCC2)c1 [KU55933] (first compound 2 µM, partner dose 1 µM) | 100 | 72.4 | 94.1 | 85.5 | 91.5 | 98.5 | 108 | 130 | 112 | 102 | 96.9 | 107 | 107 | 100 | 107 | 89.7 | 89.9 | 111 | 108 | 105
Oc1cc(-c2nc(-c3ccccc3)[nH]c2-c2ccncc2)ccc1Cl + CCCCCCCCCCCC1=C(O)C(=O)C=C(O)C1=O [Embelin] (first compound 0.2 µM, partner dose 1.2 µM) | 83.1 | 138 | 114 | 111 | 81.3 | 93.7 | 102 | 103 | 88.2 | 70.5 | 113 | 98.3 | 113 | 81.6 | 94.5 | 104 | 88 | 80.3 | 97.3 | 107
COc1cc2ncnc(Nc3ccc(Oc4ccccc4)cc3)c2cc1OC + O=c1cc(-c2cccc3c2Sc2ccccc2S3)oc(N2CCOCC2)c1 [KU55933] (first compound 2 µM, partner dose 1 µM) | 98.7 | 93.4 | 128 | 93.1 | 87.8 | 112 | 144 | 104 | 90.1 | 90.4 | 95 | 107 | 129 | 86.6 | 101 | 103 | 96.5 | 113 | 103 | 119

From the supplement of paper PMC4604168 (melanoma cell lines)
